# Measured values reported in PMC12820563, “FoxP3 forms a head-to-head dimer in vivo and stabilizes its multimerization on adjacent microsatellites”.
# The other results are listed elsewhere or left out.
# Molecular target: T1, MBP-FoxP1dN (Mus musculus, UniProt P58462 326-579)
# T1 sequence: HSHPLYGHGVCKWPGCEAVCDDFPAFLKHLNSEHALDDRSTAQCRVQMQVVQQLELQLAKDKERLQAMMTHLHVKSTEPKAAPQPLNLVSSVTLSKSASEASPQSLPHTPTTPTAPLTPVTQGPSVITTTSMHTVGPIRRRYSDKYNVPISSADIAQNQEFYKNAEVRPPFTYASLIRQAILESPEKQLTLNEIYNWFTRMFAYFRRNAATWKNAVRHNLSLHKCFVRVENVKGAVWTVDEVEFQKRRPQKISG
# Test: PD-seq (MBP pull-down with sequencing); 20 mM Tris-HCl pH 7.5, 100 mM NaCl, 1.5 mM MgCl2, 0.4 uM protein, 0.1 uM dsDNA library, 30 min, room temperature, amylose pull-down; high values mean tight binding
# Settings: protein: recombinant; tags: His6-MBP; chain copies: 2; dsDNA, one strand shown
# In short: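 In Tris pH 7.5 buffer with NaCl and MgCl2, 0.4 µM His6-MBP-tagged mouse FoxP3 or FoxP1 fragment lacking the N-terminus, from E. coli, met 0.1 µM Klenow-filled double-stranded degenerate DNA library for 30 min at room temperature. Three washes on amylose resin followed capture of the complexes, then proteinase K release of DNA, PCR barcoding and Illumina sequencing. Binding is taken as pooled-replicate reads-per-million enrichment of pull-down relative to input.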
row,Sequence,binding signal
1,GATGATTGTTCTCCCAGCTGATGAATTTCCGGACTCGAGTAAACAAATTTTCCTAATCTTTCTGTTCAAGCGCCATCTAC,0.734 RPM ratio (pull-down/input)
2,GATGATTGTTCTCCCAGCTGATGAATTTTTGCATTCGAGTAAACAAATTTTCCTAATCTTTCTGTTCAAGCGCCATCTAC,1.48 RPM ratio (pull-down/input)
3,GATGATTGTTCTCCCAGCTGATGAATTTTTCTCTTCGAGTAAACAAATTTTCCTAATCTTTCTGTTCAAGCGCCATCTAC,0.872 RPM ratio (pull-down/input)
4,GATGATTGTTCTCCCAGCTGATGAATTCACCCCATCGAGTAAACAAATTTTCCTAATCTTTCTGTTCAAGCGCCATCTAC,0.891 RPM ratio (pull-down/input)
5,GATGATTGTTCTCCCAGCTGATGAATTCGGGCTATCGAGTAAACAAATTTTCCTAATCTTTCTGTTCAAGCGCCATCTAC,0.827 RPM ratio (pull-down/input)
6,GATGATTGTTCTCCCAGCTGATGAATTTGATGAGTCGAGTAAACAAATTTTCCTAATCTTTCTGTTCAAGCGCCATCTAC,0.803 RPM ratio (pull-down/input)
7,GATGATTGTTCTCCCAGCTGATGAATTCCCCACTTCGAGTAAACAAATTTTCCTAATCTTTCTGTTCAAGCGCCATCTAC,0.877 RPM ratio (pull-down/input)
8,GATGATTGTTCTCCCAGCTGATGAATTAGGATTGTCGAGTAAACAAATTTTCCTAATCTTTCTGTTCAAGCGCCATCTAC,0.969 RPM ratio (pull-down/input)
9,GATGATTGTTCTCCCAGCTGATGAATTGGATGGCTCGAGTAAACAAATTTTCCTAATCTTTCTGTTCAAGCGCCATCTAC,0.804 RPM ratio (pull-down/input)
10,GATGATTGTTCTCCCAGCTGATGAATTACGCAGGTCGAGTAAACAAATTTTCCTAATCTTTCTGTTCAAGCGCCATCTAC,0.977 RPM ratio (pull-down/input)
11,GATGATTGTTCTCCCAGCTGATGAATTCTCCAGCTCGAGTAAACAAATTTTCCTAATCTTTCTGTTCAAGCGCCATCTAC,0.825 RPM ratio (pull-down/input)
12,GATGATTGTTCTCCCAGCTGATGAATTGGAAGATTCGAGTAAACAAATTTTCCTAATCTTTCTGTTCAAGCGCCATCTAC,0.835 RPM ratio (pull-down/input)
13,GATGATTGTTCTCCCAGCTGATGAATTTTATACCTCGAGTAAACAAATTTTCCTAATCTTTCTGTTCAAGCGCCATCTAC,0.928 RPM ratio (pull-down/input)
14,GATGATTGTTCTCCCAGCTGATGAATTGACCGCTTCGAGTAAACAAATTTTCCTAATCTTTCTGTTCAAGCGCCATCTAC,0.971 RPM ratio (pull-down/input)
15,GATGATTGTTCTCCCAGCTGATGAATTGTCCGCGTCGAGTAAACAAATTTTCCTAATCTTTCTGTTCAAGCGCCATCTAC,1 RPM ratio (pull-down/input)
16,GATGATTGTTCTCCCAGCTGATGAATTTACATATTCGAGTAAACAAATTTTCCTAATCTTTCTGTTCAAGCGCCATCTAC,1.5 RPM ratio (pull-down/input)
17,GATGATTGTTCTCCCAGCTGATGAATTCATTTAGTCGAGTAAACAAATTTTCCTAATCTTTCTGTTCAAGCGCCATCTAC,0.95 RPM ratio (pull-down/input)
18,GATGATTGTTCTCCCAGCTGATGAATTGGTCCTATCGAGTAAACAAATTTTCCTAATCTTTCTGTTCAAGCGCCATCTAC,0.903 RPM ratio (pull-down/input)
